Test results from publication PMC3901232.
No constants are given. Whether binding was seen depends on the method and setting. Binding seen in cells or lysates may run through a third protein. Some binding calls cover weakened binding; strength is not graded here. Tags and fused reporters may be left off the sequences shown.

Legend:
[1] = biological target: T1, EIICB^Glc-K150E-5His (E. coli K-12) (UniProt P69786); experiment: condition: only in the PTS-positive strain JKA12, where the K150E transporter remains phosphorylated; cross-linking; in vivo, 0.3% paraformaldehyde for 20 min at 37 °C; PTS-positive cells (JKA12; also the dgsA deletion strain LJB17) grown with 0.2% glucose; membrane proteins solubilised with 2% Triton X-100; EIICB^Glc-His purified on Ni-NTA agarose; co-purified SgrT-3HA detected by Western blot
T1 sequence: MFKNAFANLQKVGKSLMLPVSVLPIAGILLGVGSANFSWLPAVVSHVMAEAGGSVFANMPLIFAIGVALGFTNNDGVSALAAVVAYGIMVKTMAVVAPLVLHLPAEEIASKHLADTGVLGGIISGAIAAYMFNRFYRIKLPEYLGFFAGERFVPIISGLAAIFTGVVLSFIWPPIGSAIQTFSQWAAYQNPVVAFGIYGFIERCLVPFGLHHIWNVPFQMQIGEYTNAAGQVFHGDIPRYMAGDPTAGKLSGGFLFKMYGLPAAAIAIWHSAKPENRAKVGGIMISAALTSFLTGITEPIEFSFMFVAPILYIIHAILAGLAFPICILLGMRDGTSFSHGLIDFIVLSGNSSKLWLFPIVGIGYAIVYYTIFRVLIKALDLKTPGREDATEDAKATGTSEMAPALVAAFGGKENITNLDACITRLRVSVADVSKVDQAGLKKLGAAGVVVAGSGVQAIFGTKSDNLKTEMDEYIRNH

[2] = biological target: T2, EIICB^Glc-D388A-5His (E. coli K-12) (UniProt P69786); experiment: cross-linking; in vivo, 0.3% paraformaldehyde for 20 min at 37 °C; PTS-positive cells (JKA12; also the dgsA deletion strain LJB17) grown with 0.2% glucose; membrane proteins solubilised with 2% Triton X-100; EIICB^Glc-His purified on Ni-NTA agarose; co-purified SgrT-3HA detected by Western blot
T2 sequence: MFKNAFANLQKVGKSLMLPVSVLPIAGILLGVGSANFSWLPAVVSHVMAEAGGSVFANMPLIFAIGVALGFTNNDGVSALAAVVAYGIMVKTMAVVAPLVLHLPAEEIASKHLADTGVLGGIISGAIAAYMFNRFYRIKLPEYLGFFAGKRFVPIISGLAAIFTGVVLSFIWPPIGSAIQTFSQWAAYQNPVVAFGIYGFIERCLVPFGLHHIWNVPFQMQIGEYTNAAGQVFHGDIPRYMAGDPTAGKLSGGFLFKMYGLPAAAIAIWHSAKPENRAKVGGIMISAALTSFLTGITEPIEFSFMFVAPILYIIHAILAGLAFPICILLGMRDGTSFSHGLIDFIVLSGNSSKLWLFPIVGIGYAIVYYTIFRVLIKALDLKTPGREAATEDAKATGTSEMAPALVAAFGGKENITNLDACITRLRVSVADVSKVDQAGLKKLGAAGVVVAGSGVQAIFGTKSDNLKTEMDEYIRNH

[3] = biological target: T3, EIICB^Glc-5His (E. coli K-12) (UniProt P69786); experiment: cross-linking; as a1, but JKA12 cells grown in the absence of glucose
T3 sequence: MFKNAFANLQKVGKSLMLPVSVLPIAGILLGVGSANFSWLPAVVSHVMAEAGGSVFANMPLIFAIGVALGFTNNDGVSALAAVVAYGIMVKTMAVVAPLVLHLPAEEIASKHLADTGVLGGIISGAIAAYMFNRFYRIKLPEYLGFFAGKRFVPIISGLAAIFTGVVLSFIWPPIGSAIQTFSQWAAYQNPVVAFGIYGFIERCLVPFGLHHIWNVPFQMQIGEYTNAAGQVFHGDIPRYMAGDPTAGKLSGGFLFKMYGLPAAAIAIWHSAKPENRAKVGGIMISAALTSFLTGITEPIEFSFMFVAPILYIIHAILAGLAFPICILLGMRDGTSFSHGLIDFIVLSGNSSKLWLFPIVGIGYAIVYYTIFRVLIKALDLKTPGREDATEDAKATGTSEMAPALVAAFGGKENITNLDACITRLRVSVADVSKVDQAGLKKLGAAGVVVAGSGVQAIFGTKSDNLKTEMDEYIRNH

[4] = biological target: T1, EIICB^Glc-K150E-5His (E. coli K-12); experiment: cross-linking; as a1, but in the ptsHIcrr deletion strain LJ140 (no phosphorylation of EIICB^Glc can occur); cells grown in the absence or presence of glucose
[5] = biological target: T3, EIICB^Glc-5His (E. coli K-12); experiment: as above

MRQFYQHYFTATAKLCWLRWLSVPQRLTMLEGLMQWDDRNSES (peptide, UniProt C1P5Z7 1-43) [SgrT-3HA]
binding [1]: no binding
binding [2]: binds
binding [3]: binds weakly
binding [4]: binds
binding [5]: binds
